{"source": "paper PMC9911399", "about": "“Two distinct binding modes provide the RNA-binding protein RbFox with extraordinary sequence specificity”", "binders": {"B1": {"name": "ACUAUAA (DNA:RNA)", "RNA": "GGGAGACCGGAAUUCAGAUUGUCCACUAUAAUUAAAUCCCGUCGUAGCCACCA", "DNA 1": "CAATCTGAATTCCGGTCTCCC", "DNA 2": "TGGTGGCTACGACGGGATT"}, "B2": {"name": "UUAAUCU (DNA:RNA)", "RNA": "B1 RNA with A25U, C26U, U27A, A30C, A31U", "DNA 1": "CAATCTGAATTCCGGTCTCCC", "DNA 2": "TGGTGGCTACGACGGGATT"}, "B3": {"name": "UACGUAC (DNA:RNA)", "RNA": "B1 RNA with A25U, C26A, U27C, A28G, A31C", "DNA 1": "CAATCTGAATTCCGGTCTCCC", "DNA 2": "TGGTGGCTACGACGGGATT"}, "B4": {"name": "UGAUCCU (DNA:RNA)", "RNA": "GGGAGACCGGAAUUCAGAUUGUCCUGAUCCUUUAAAUCCCGUCGUAGCCACCA", "DNA 1": "CAATCTGAATTCCGGTCTCCC", "DNA 2": "TGGTGGCTACGACGGGATT"}, "B5": {"name": "UAGCCGU (DNA:RNA)", "RNA": "B4 RNA with G26A, A27G, U28C, C30G", "DNA 1": "CAATCTGAATTCCGGTCTCCC", "DNA 2": "TGGTGGCTACGACGGGATT"}, "B6": {"name": "CGACGAA (DNA:RNA)", "RNA": "B1 RNA with A25C, C26G, U27A, A28C, U29G", "DNA 1": "CAATCTGAATTCCGGTCTCCC", "DNA 2": "TGGTGGCTACGACGGGATT"}, "B7": {"name": "CCCAGGA (DNA:RNA)", "RNA": "B1 RNA with A25C, U27C, U29G, A30G", "DNA 1": "CAATCTGAATTCCGGTCTCCC", "DNA 2": "TGGTGGCTACGACGGGATT"}, "B8": {"name": "GGUUAAC (DNA:RNA)", "RNA": "B1 RNA with A25G, C26G, A28U, U29A, A31C", "DNA 1": "CAATCTGAATTCCGGTCTCCC", "DNA 2": "TGGTGGCTACGACGGGATT"}, "B9": {"name": "ACUGUGU (DNA:RNA)", "RNA": "B1 RNA with A28G, A30G, A31U", "DNA 1": "CAATCTGAATTCCGGTCTCCC", "DNA 2": "TGGTGGCTACGACGGGATT"}, "B10": {"name": "UAACCCU (DNA:RNA)", "RNA": "B4 RNA with G26A, U28C", "DNA 1": "CAATCTGAATTCCGGTCTCCC", "DNA 2": "TGGTGGCTACGACGGGATT"}, "B11": {"name": "ACCCGAC (DNA:RNA)", "RNA": "B1 RNA with U27C, A28C, U29G, A31C", "DNA 1": "CAATCTGAATTCCGGTCTCCC", "DNA 2": "TGGTGGCTACGACGGGATT"}, "B12": {"name": "UCUGAGU (DNA:RNA)", "RNA": "B1 RNA with A25U, A28G, U29A, A30G, A31U", "DNA 1": "CAATCTGAATTCCGGTCTCCC", "DNA 2": "TGGTGGCTACGACGGGATT"}, "B13": {"name": "AGCCCGU (DNA:RNA)", "RNA": "B4 RNA with U25A, A27C, U28C, C30G", "DNA 1": "CAATCTGAATTCCGGTCTCCC", "DNA 2": "TGGTGGCTACGACGGGATT"}, "B14": {"name": "CAGGUCG (DNA:RNA)", "RNA": "B1 RNA with A25C, C26A, U27G, A28G, A30C, A31G", "DNA 1": "CAATCTGAATTCCGGTCTCCC", "DNA 2": "TGGTGGCTACGACGGGATT"}, "B15": {"name": "CUGGCGC (DNA:RNA)", "RNA": "B4 RNA with U25C, G26U, A27G, U28G, C30G, U31C", "DNA 1": "CAATCTGAATTCCGGTCTCCC", "DNA 2": "TGGTGGCTACGACGGGATT"}, "B16": {"name": "GGUGUGA (DNA:RNA)", "RNA": "B1 RNA with A25G, C26G, A28G, A30G", "DNA 1": "CAATCTGAATTCCGGTCTCCC", "DNA 2": "TGGTGGCTACGACGGGATT"}, "B17": {"name": "GUGCAAC (DNA:RNA)", "RNA": "B1 RNA with A25G, C26U, U27G, A28C, U29A, A31C", "DNA 1": "CAATCTGAATTCCGGTCTCCC", "DNA 2": "TGGTGGCTACGACGGGATT"}, "B18": {"name": "CUAUGAG (DNA:RNA)", "RNA": "B4 RNA with U25C, G26U, C29G, C30A, U31G", "DNA 1": "CAATCTGAATTCCGGTCTCCC", "DNA 2": "TGGTGGCTACGACGGGATT"}, "B19": {"name": "AGGAGGA (DNA:RNA)", "RNA": "B1 RNA with C26G, U27G, U29G, A30G", "DNA 1": "CAATCTGAATTCCGGTCTCCC", "DNA 2": "TGGTGGCTACGACGGGATT"}, "B20": {"name": "GUACGUG (DNA:RNA)", "RNA": "B4 RNA with U25G, G26U, U28C, C29G, C30U, U31G", "DNA 1": "CAATCTGAATTCCGGTCTCCC", "DNA 2": "TGGTGGCTACGACGGGATT"}}, "note": "Numbering of substitutions follows the chain as printed; changes in the protein carry UniProt numbers. This is one part of the list."}
{"molecular_target": "T1, RBFOX1 RRM (Homo sapiens, UniProt Q9NWB1 109-208)", "T1 sequence": "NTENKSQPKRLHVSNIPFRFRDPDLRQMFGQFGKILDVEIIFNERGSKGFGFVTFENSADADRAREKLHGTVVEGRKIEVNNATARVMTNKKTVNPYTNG", "experiment": "EMSA; HiTS-Eq, 1 nM pool, 10 min; buffer printed only for the single-RNA assays: 10 mM Tris pH 7.5, 150 mM NaCl, 3.4 mM EDTA, 0.001% NP-40, 30 C", "details": "tags: His6 N-terminal (pET28a); label: 5' 32P", "outline": "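Purified wild-type or mutant RbFox RRM at increasing concentrations was equilibrated with 1 nM of 5′-radiolabelled RNA carrying 7 randomized nucleotides for 10 min in 50 µL. Unbound RNA was separated by 8% native PAGE and sequenced. Relative association constants came from read-count changes of each RNA species compared with the control reaction, normalised to the cognate motif.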"}
{"binder": "B1", "binding signal": "0.000364 KA relative to UGCAUGU"}
{"binder": "B2", "binding signal": "0.00588 KA relative to UGCAUGU"}
{"binder": "B3", "binding signal": "0.00843 KA relative to UGCAUGU"}
{"binder": "B4", "binding signal": "0.0129 KA relative to UGCAUGU"}
{"binder": "B5", "binding signal": "0.0103 KA relative to UGCAUGU"}
{"binder": "B6", "binding signal": "0.00905 KA relative to UGCAUGU"}
{"binder": "B7", "binding signal": "0.00613 KA relative to UGCAUGU"}
{"binder": "B8", "binding signal": "0.00754 KA relative to UGCAUGU"}
{"binder": "B9", "binding signal": "0.016 KA relative to UGCAUGU"}
{"binder": "B10", "binding signal": "0.002 KA relative to UGCAUGU"}
{"binder": "B11", "binding signal": "0.00365 KA relative to UGCAUGU"}
{"binder": "B12", "binding signal": "0.0138 KA relative to UGCAUGU"}
{"binder": "B13", "binding signal": "0.00977 KA relative to UGCAUGU"}
{"binder": "B14", "binding signal": "0.0132 KA relative to UGCAUGU"}
{"binder": "B15", "binding signal": "0.02 KA relative to UGCAUGU"}
{"binder": "B16", "binding signal": "0.0133 KA relative to UGCAUGU"}
{"binder": "B17", "binding signal": "0.0174 KA relative to UGCAUGU"}
{"binder": "B18", "binding signal": "0.0141 KA relative to UGCAUGU"}
{"binder": "B19", "binding signal": "0.009 KA relative to UGCAUGU"}
{"binder": "B20", "binding signal": "0.0162 KA relative to UGCAUGU"}
